The other results are listed elsewhere or left out. Further columns of the screen follow, without active or inactive calls.
How the values were obtained:
Assay in all cases: Primary Screen for Target Class Profiling of Small Molecule Inhibitors of Methyltransferases
[1] = target: Glycine N-methyltransferase (Homo sapiens) (UniProt Q14749); details: purified enzyme, MTase-Glo SAH luminescence; measured here: GNMT inhibition; at 40 µM; stronger effect = lower value
Summary of the method: (§1)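 Each enzyme was assayed with SAM and its substrate. SAH formation detected by MTase-Glo luminescence; single-point 40 uM screen[…].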

[2] = target: Guanidinoacetate N-methyltransferase (Homo sapiens) (UniProt Q14353); details: purified enzyme, MTase-Glo SAH luminescence; measured here: GAMT inhibition; at 40 µM; stronger effect = lower value
Summary of the method: as §1

[3] = target: Histamine N-methyltransferase (Homo sapiens) (UniProt P50135); details: purified enzyme, MTase-Glo SAH luminescence; measured here: HNMT inhibition; at 40 µM; stronger effect = lower value
Summary of the method: as §1

[4] = target: Nicotinamide N-methyltransferase (Homo sapiens) (UniProt P40261); details: purified enzyme, MTase-Glo SAH luminescence; measured here: NNMT inhibition; at 40 µM; stronger effect = lower value
Summary of the method: as §1

[5] = target: Phenylethanolamine N-methyltransferase (Homo sapiens) (UniProt P11086); details: purified enzyme, MTase-Glo SAH luminescence; measured here: PNMT inhibition; at 40 µM; stronger effect = lower value
Summary of the method: as §1
% is scaled to controls: 0 for no effect and ±100 for the full control effect.

Compound	activity change, negative = inhibition [1] [%]	activity change, negative = inhibition [2] [%]	activity change, negative = inhibition [3] [%]	activity change, negative = inhibition [4] [%]	activity change, negative = inhibition [5] [%]
Cn1c(=O)n(C)c2cc(S(=O)(=O)NC3CC3)ccc21	12	0	7.44	1.97	3.57
CC(C)CCN1CCC(N2CCN(C(=O)c3ccc(Br)o3)CC2)C1=O (stereo not given)	-5.5	-5.76	-1.75	-9.89	-5.45
NC1(C(=O)NC(CCO)c2ccc(Cl)cc2)CCN(c2ncnc3[nH]ccc23)CC1 (stereo not given)	-3.07	–	5.03	–	–
COc1cccc(CN2CCCC(c3nc(-c4cccnc4)no3)CCNC(=O)CC2)n1 (stereo not given)	-5.66	-3.36	-2.48	-8.4	0.428
CCc1noc([C@@H]2CC(F)(F)CN2C(=O)Cc2cccnc2)n1	-0.603	-4.69	2.27	-2.29	-1
CCCn1c(=O)c2ccc(C(=O)NC3CCCCC3)cc2n2c(=O)n(CC(=O)c3ccccc3)nc12	-1.7	-3.12	0.224	-6.24	-4.96
CCOC(=O)c1cc2n(n1)CC(C)(C(=O)NC1CCCC1)N(c1ccc(F)cc1C)C2=O (stereo not given)	7.52	0	8.33	2.04	3.91
O=C(O)CCc1conc1-c1ccc(F)cc1	-1.11	-6.78	-0.757	1.48	0.29
CCc1cc2c(cc3n2CC(C)(C(=O)NC2CCCCCC2)N(C2CCCCC2)C3=O)s1 (stereo not given)	-1.63	4.55	-1.28	-3.92	-6.29
CN(C)c1ccc(C(=O)N[C@H]2C[C@H]3C(=O)NC[C@@H](CCC(=O)N4CCc5ccccc54)N3C2)cc1	-10.5	-4.06	-3.88	-12.9	-6.26
O=C1CO[C@H]2CN(c3ncccn3)C[C@H]2N1CC1CCCCC1	-12.5	-10	-5.58	-25.1	-19.7
Cc1ccc(C)c(N2CCN(C(=O)CCc3nnc4n(Cc5ccccc5)c(=O)c5ccccc5n34)CC2)c1	1.08	-0.291	-2.02	-0.95	-4.01
CC1(C(=O)NC2CCCC2)Cn2c(ccc2-c2ccccc2)C(=O)N1CCCc1ccccc1 (stereo not given)	-5.33	-0.958	-2.87	-1.02	-1.9
COc1ccc(-c2cc3n(n2)CC(C)(C(=O)NCc2ccccc2OC)N(c2ccc(Cl)cc2)C3=O)cc1 (stereo not given)	3.38	0	5.62	0.573	-0.374
COc1cccc(NS(=O)(=O)c2ccc3c(c2)N(C)C(=O)CC(=O)N3C)c1	4.59	2.96	9.06	9.52	2.08
O=C1CC2(CCCC2)[C@H](O)C(=O)N1CCCCN1CCN(c2ncccn2)CC1	-5.08	-14	-2.22	-21.4	-8.37
CC(C)Cn1c(=O)c2ccccc2n2c(=O)n(CC(=O)Nc3ccc(F)cc3)nc12	-4.15	2.58	1.55	-9.06	-5.09
O=C(Nc1ccc(Oc2cccnc2)cc1)C1CCN(CCCc2ccccc2)CC1	-3.46	2.17	-16.5	-16.4	-2.69
CCCn1ncc(C(=O)NCC2(O)CCCNC2)c1C (stereo not given)	-6.49	-10.9	-5.92	-16.2	-12.1

Compound	activity change, negative = inhibition [1] [%]	activity change, negative = inhibition [2] [%]	activity change, negative = inhibition [3] [%]	activity change, negative = inhibition [4] [%]	activity change, negative = inhibition [5] [%]
Cc1ccc(C(=O)N2C[C@@H](CN3CCOCC3)[C@@H](CO)C2)cc1O	1.14	2.81	2.41	-4.39	10.3
CCOc1ccc(CN2C(=O)c3c(C(=O)OC)ncn3CC2(C)C(=O)NC2CCCCCC2)cc1 (stereo not given)	7.6	0.844	7.37	2.68	6.05
CCCCN1C(=O)c2cc(C(=O)Nc3ccccc3Br)nn2CC1(C)C(=O)NC1CCCC1 (stereo not given)	4.67	0	-10.5	1.37	8.49
Cc1ccc(S(=O)(=O)N(C)C2CCc3ccccc32)cc1 (stereo not given)	-2.67	2.23	-0.297	-14.1	-0.933
Cc1ccc(-c2ncccc2CNS(=O)(=O)c2cc(F)ccc2C)cc1	-2.29	6.51	-5.11	-6.66	-3.02
NC(=O)c1nnn([C@H]2CCN3C(=O)[C@@H](Cc4ccccc4)NC(=O)[C@@H]3C2)c1C(N)=O	-0.953	-2.11	0.617	-7.92	-0.72
COCc1nnc2n1CCC(NC(=O)Cn1nc(C(F)(F)F)cc1C)CC2 (stereo not given)	1.71	-1.5	1.35	2.38	14.2
NC1CCC(Nc2cc(-c3cccc(NCc4cccc(F)c4)n3)c(Cl)cn2)CC1 (stereo not given)	-32.4	12.4	3.61	-39.7	-4.7
COCCN1C(=O)c2cc(-c3ccccc3)nn2CC1(C)C(=O)NCc1ccccc1 (stereo not given)	2.87	5.06	8.76	4.7	1.58
O=C(OC[C@H]1O[C@H](O[C@]2(CO)O[C@H](CO)[C@@H](O)[C@@H]2O)[C@H](O)[C@@H](O)[C@@H]1O)c1ccccc1	3.84	8.64	4.9	-4.77	5.73
COc1cc2c(cc1OC)CC(=O)N(CCCNC[C@H]1Cc3cc(OC)c(OC)cc31)CC2	-4.92	-2.87	-2.8	-11.5	1.6
CC[C@H]1OC(=O)[C@H](C)[C@@H](O[C@H]2C[C@@](C)(OC)[C@@H](O)[C@H](C)O2)[C@H](C)[C@@H](O[C@@H]2O[C@H](C)C[C@H](N(C)C)[C@H]2O)C(C)(O)C[C@@H](C)/C(=N\OCOCCOC)[C@H](C)[C@@H](O)[C@]1(C)O (stereo not given in full)	–	13.6	–	-3.74	4.33
Cc1csc(N(C(=O)CSc2ccc(-c3ccccc3)nn2)C2CC2)n1	-6.88	-5.55	-8.17	-21.8	-11.7
COc1cccc(CNC(=O)CSc2nnc3n(CC(C)C)c(=O)c4ccccc4n23)c1	7.24	0	10.9	9.32	6.64
COc1ccccc1OCCNCC(O)COc1cccc2[nH]c3ccccc3c12 (stereo not given)	0.121	16.3	-1.43	-7.32	-10.9
O=C(Cn1ccc2cc(S(=O)(=O)N3CCCCC3)ccc21)NC1CCCc2ccccc21 (stereo not given)	5.15	1.47	3.3	1.64	-0.078
Cc1ccc(C)c(N2C(=O)c3cc4occc4n3CC2(C)C(=O)NC2CCCCCC2)c1 (stereo not given)	-1.45	0	-8.94	-3.41	-1.36
CC(C)c1nc(CN(C)C(=O)N[C@H](C(=O)N[C@@H](Cc2ccccc2)C[C@H](O)[C@H](Cc2ccccc2)NC(=O)OCc2cncs2)C(C)C)cs1	-3.31	0.829	7.85	-20.7	-2.22
CC1c2cccn2-c2sc3c(c2CN1C(=O)NC1CCCCC1)CCN(C)C3 (stereo not given)	-4.24	2.13	-0.266	-3.6	-0.894

Compound	activity change, negative = inhibition [1] [%]	activity change, negative = inhibition [2] [%]	activity change, negative = inhibition [3] [%]	activity change, negative = inhibition [4] [%]	activity change, negative = inhibition [5] [%]
CC(C)(C)c1cc2n(n1)CC(C)(C(=O)NCc1ccccc1)N(c1ccc(F)cc1F)C2=O (stereo not given)	8.92	1.98	10.1	8.37	4.96
CN(Cc1cccs1)Cc1cccn1C	-12.2	-7.99	-29.2	-8.69	-12.1
COc1ccccc1N1CCN(CC[C@@H]2CC[C@H](O)[C@@H](C(=O)Nc3ccccc3)O2)CC1	-4.42	-5.33	-2.68	-9.08	-7.39
C/C(CO)=C1/CCC23COC(C2)C(O)(C(=O)O)CCC13 (stereo not given)	-1.91	-7	4.55	-17.5	-4.41
CCCCc1nn(CC(=O)N2CCOC(c3ccccc3)C2)c(=O)n1CC (stereo not given)	-0.943	-0.219	-1.52	0.111	-5.04
CCCOC(=O)c1c(-c2ccccc2)nc(CC)c(C(=O)SCC)c1CCC	-5.29	4.03	-1.73	-9.13	3.5
O=C(CNC(=O)c1ccc(-c2cccc(C(F)(F)F)c2)cc1)NCC(F)(F)F	-0.635	-3.28	-0.99	-2.47	3.85
CC(C)NC(=O)NC[C@H]1OC[C@@H](NCc2ncc[nH]2)[C@@H]1O	1	1.61	2.88	0.707	16.6
CCC(C)CC(=O)OC1C(=O)C(CO)=CC(O)C1C(C)C (stereo not given)	-36.4	-8.31	-9.27	-29.6	-4.67
COCCn1nnnc1C1CC2(CCOCC2)C(=O)N1CCc1ccc(OC)c(OC)c1 (stereo not given)	-0.147	2.06	0.479	-0.431	2.64
O=C(NCc1ccc2c(c1)OCO2)c1sc(=S)n2c1[nH]c(=O)c1cc(Cl)ccc12	-28.7	0.844	-1.19	-41.4	-28.3
Cc1ccc(CNC(=O)C2(C)Cn3nc(C(=O)NCCN(C)C)cc3C(=O)N2C)cc1 (stereo not given)	-0.087	1.28	-2.78	1.93	-0.846
CCN(C1CCOCC1)C1CN(C(=O)c2ccccn2)C1	-1.24	7.93	1.34	0.589	-0.819
Cc1ccc(C2=NC3(CCN(C(=O)COc4cccc(C)c4)CC3)ON2)cc1	-5.88	-3.68	-4.65	-6.06	-3.45
O=C(c1ccsc1)N1CCc2c(nc3cc[nH]n3c2=O)C1	-5.84	-8.25	-3.9	-11.8	-10.9
CCC(C)(OC(C)=O)C(=O)O[C@H]1[C@H](OC(C)=O)[C@]2(CO)[C@H](O)[C@H](O)[C@]3(C)C(=CCC4[C@@]5(C)CC[C@H](O[C@@H]6O[C@H](C(=O)O)[C@@H](O)[C@H](O[C@@H]7OC[C@H](O)[C@H](O[C@@H]8OC[C@H](O)[C@H](O)[C@H]8O)[C@H]7O)[C@H]6O[C@@H]6O[C@H](CO)[C@@H](O)[C@H](O)[C@H]6O)C(C)(C)C5CC[C@]43C)[C@@H]2CC1(C)C (stereo not given in full)	-3.06	-1.23	9.15	-15	-10.4
C=CCn1c(=O)c2ccc(C(=O)NC(C)C)cc2n2c(=O)n(CC(=O)NCCc3ccccc3)nc12	4.78	1.77	3.48	5.31	6.5
Cc1ccc(CNC(=O)c2ncn3c2C(=O)N(C2CC2)C(C)(C(=O)NCc2cccc(C)c2)C3)cc1 (stereo not given)	3.56	3.11	12.3	7.8	9.06
CCCN1C(=O)c2cc(C(=O)NCCc3ccc(OCC)cc3)nn2CC1(C)C(=O)NC1CCCC1 (stereo not given)	2.55	0	-19.5	5.88	2.32

Source: PubChem BioAssay AID1745853 (National Center for Advancing Translational Sciences (NCATS), 2022)
